This is one part of the list.
How the values were obtained:
HSkMC = human skeletal muscle cells; experiment: cytotoxicity call (relative viability < 0.9); details: 10 µM
HepG2 = experiment: cytotoxicity call (relative viability < 0.9); details: 10 µM
S. aureus RN4220 = experiment: growth inhibition call (relative growth <= 0.2); details: 50 µM

Row | Compound | cytotoxicity call (HSkMC) | cytotoxicity call (HepG2) | growth inhibition call (S. aureus RN4220)
1 | COc1ccc(-n2c(C)cc(CN)c2C)cc1 | inactive | inactive | inactive
2 | O=C1N[C@@H](Cc2c[nH]c3ccccc23)COC(=O)[C@@H](Cc2ccc(F)cc2)CCC=CC[C@H]1CC(=O)N(CCO)Cc1ccccc1 | inactive | inactive | inactive
3 | C[C@H](CO)N1C[C@H](C)[C@@H](CN(C)S(=O)(=O)c2ccc(F)cc2)Oc2c(NC(=O)C3CC3)cccc2C1=O | inactive | inactive | inactive
4 | C[C@@H]1CN([C@@H](C)CO)S(=O)(=O)c2ccc(C#Cc3ccccc3F)cc2O[C@H]1CN(C)C(=O)c1ccc2c(c1)OCO2 | active | inactive | inactive
5 | C[C@@H]1CN([C@@H](C)CO)S(=O)(=O)c2ccc(C#Cc3ccncc3)cc2O[C@H]1CN(C)C(=O)C1CCOCC1 | inactive | active | inactive
6 | Cc1ccc(S(=O)(=O)Nc2cccc3c2O[C@@H](CN(C)S(=O)(=O)c2ccc(F)cc2)[C@H](C)CN([C@@H](C)CO)C3=O)cc1 | inactive | inactive | inactive

Reference: the antibiotic and cytotoxicity screens of Wong et al. (2023)
